# According to PMC6919601, “Identification of Plasmodium dipeptidyl aminopeptidase allosteric inhibitors by high throughput screening” (PLoS ONE, 2019):
# The whole screen tested about 110,000 compounds, of which about 230 (0.21%) showed an effect of 50% or more. Some of the results follow.
# Target: DPAP1 (Plasmodium falciparum, UniProt Q8IIJ9)
# Assay: primary screen, percent inhibition; read by cleavage of a fluorogenic dipeptide substrate; higher = more effect of the substance
# Design: species or system P. falciparum D10 trophozoite lysates; single well
# 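Note: 30 min substrate incubation versus DMSO and 10 µM JCP410 controls.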
# Chain of DPAP1 (Q8IIJ9 whole entry, looked up): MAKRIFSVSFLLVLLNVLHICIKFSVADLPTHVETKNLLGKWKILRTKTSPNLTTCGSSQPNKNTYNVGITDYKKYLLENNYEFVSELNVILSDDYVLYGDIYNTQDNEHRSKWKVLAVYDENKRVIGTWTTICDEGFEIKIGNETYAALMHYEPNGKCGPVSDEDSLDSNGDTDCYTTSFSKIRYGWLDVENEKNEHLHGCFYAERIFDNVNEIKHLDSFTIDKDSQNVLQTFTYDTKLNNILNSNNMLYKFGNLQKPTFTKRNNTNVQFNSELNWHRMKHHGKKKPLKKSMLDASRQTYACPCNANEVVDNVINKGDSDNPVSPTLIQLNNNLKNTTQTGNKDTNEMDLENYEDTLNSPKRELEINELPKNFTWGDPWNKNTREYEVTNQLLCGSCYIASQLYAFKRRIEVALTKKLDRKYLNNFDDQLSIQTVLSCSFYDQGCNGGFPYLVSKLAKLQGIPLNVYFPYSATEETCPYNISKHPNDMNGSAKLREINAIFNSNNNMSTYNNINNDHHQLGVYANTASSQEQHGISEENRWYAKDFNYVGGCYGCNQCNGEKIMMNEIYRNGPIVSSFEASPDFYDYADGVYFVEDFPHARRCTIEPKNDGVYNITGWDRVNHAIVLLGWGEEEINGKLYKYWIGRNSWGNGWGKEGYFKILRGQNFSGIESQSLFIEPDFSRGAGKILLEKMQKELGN
row,Structure (SMILES),% Inhibition @ 10 uM [%]
1,COc1ccc(-c2cc(C(F)(F)F)n3ncc(C(=O)Nc4cccnc4Cl)c3n2)cc1OC,-4.84
2,CCN(CC)CCCNC(=O)c1ccc2nc(N3CCOCC3)sc2c1,2.65
3,CCn1c2ccccc2n2c(SCc3nc4ccccc4[nH]3)nnc12,-5.38
4,O=C1S/C(=C\c2ccc3c(c2)OCO3)C(=O)N1Cc1ccccc1F,-9.45
5,COc1cc(C2C3=C(O)c4ccccc4C3=Nc3nc(N)nc(O)c32)ccc1O (centres unmarked),-5.4
6,O=C1OC2(CCCC2)OC(=O)C1=Cc1ccc(-c2cccc(C(F)(F)F)c2)o1,-4.51
7,CCc1nnc(NC(=O)C(=O)c2cc(C)n(-c3cccc(C)c3)c2C)s1,0.655
8,COc1ccc(CC/N=C(\C)C2=C(O)CC(C)(C)CC2=O)cc1OC,1.82
9,Cc1cccc(NC(=O)CN(Cc2ccc(Cl)cc2)S(=O)(=O)c2ccccc2)c1,-3.49
10,CN1CCC(N(C)Cc2ccccc2Cl)CC1,3.1
11,Cc1ccc(CNC(=O)c2cc(=O)c3ccc(C)cc3o2)cc1,-1.47
12,CN(c1cccc(NC(=O)CN(c2ccc(F)cc2)S(C)(=O)=O)c1)S(C)(=O)=O,0.381
13,Cc1cc(C)n(Cc2ccc3c(c2)OCO3)c(=O)c1C#N,4.33
14,O=C(O)C1CC=CCC1C(=O)N1CCN(c2ccc(F)cc2)CC1 (centres unmarked),2.42
15,COc1ccc(CN2CCN(c3ccc(C(C)=O)cc3)CC2)c(C)c1C,2.41
16,Cc1c(-c2ccccc2)cn2ccn3c(C)ccc3c12,4.22
17,Cc1ccc(C2=CC(c3cccc(Cl)c3)n3nc(CCCO)nc3N2)cc1 (centres unmarked),-1.98
18,COc1cc(OC)c(OC)cc1/C=C1\CN(C(C)C)C/C(=C\c2cc(OC)c(OC)cc2OC)C1=O,-2.95
19,O=C(Nc1ccccc1O)c1cccc(C(=O)Nc2ccccc2O)c1,-0.0217
20,COCCCNC(=O)c1ccc(CS(=O)(=O)Cc2ccc(C)cc2)o1,3.79
21,COc1ccc2c(c1)c1nc(SCC(=O)c3ccccc3)n(CCO)c(=O)c1n2C,26.7
22,Cc1nn(CC(=O)O)c(=O)c2ccccc12,39.5
23,COc1cccc(CNCCO)c1OCc1ccc(Cl)cc1,3.63
24,CS(=O)(=O)C1=NSC2=NC(=O)/C(=C\c3ccc(Cl)cc3)C(=N)N21,-3.39
25,Cc1ccc(C)c(Cn2c(C)c(CNCCc3cccs3)c(C(=O)O)c2C)c1,7.46

row,Structure (SMILES),% Inhibition @ 10 uM [%]
1,O=C(NCc1ccccc1)c1cccnn1,2.77
2,O=C(CSCc1cnn(-c2ccccc2)c1-n1cccc1)NCc1cccnc1,5.42
3,CNC(=S)NCCc1c(C)[nH]c2ccc(OC)cc12,-5.79
4,O=C(O)C1CCN(S(=O)(=O)c2ccccc2C(F)(F)F)CC1,0.401
5,CCCS(=O)(=O)N1CCC(C(=O)NCCC(C)C)CC1,3.24
6,N#Cc1c(N)n(-c2cccc(O)c2)c2nc3ccccc3nc12,-2.18
7,COc1ccc2[nH]cc(CCNS(C)(=O)=O)c2c1,-5.46
8,COc1cccc(C(=O)N2CCN(Cc3ccccc3)CC2)c1,-1.38
9,N#Cc1c(NC(=O)/C=C/c2ccccc2)sc2c1CCCC2,-0.833
10,O=C(NCCc1cccs1)C1CCCN(S(=O)(=O)N2CCC3(CC2)OCCO3)C1 (centres unmarked),-2.56
11,CCOc1cccc(C(=O)C2=C(O)C(=O)N(Cc3ccncc3)C2c2cccc(OC)c2)c1 (centres unmarked),0.83
12,CCOc1ccc(N(C(C)C(=O)N2CCCC2)S(C)(=O)=O)cc1 (centres unmarked),-3.39
13,O=[N+]([O-])c1ccc(-c2cc(-c3ccc(Br)cc3)nc(O)n2)cc1,-5.28
14,Cc1ccc(NC2=NC(=O)C(CC(=O)Nc3cccc(C)c3)S2)cc1 (centres unmarked),9.88
15,Cc1cc(C)c2c(N)c(C(=O)c3ccc(Br)cc3)sc2n1,7.37
16,O=C(O)c1ccc(CSc2nc3ccccc3o2)cc1,-2.27
17,CCOC(=O)c1oc2ccc(CNC3CCCCC3)c(Cl)c2c1C,4.16
18,O=C(CCCn1nc(-c2ccccc2)c2cc(Cl)ccc21)NCCCN1CCOCC1,-8.58
19,COc1ccc(OC)c(CCC(=O)O)c1,-6.2
20,COc1cc(N2CCCC2)c(OC)cc1/C=C1\NC(=O)N(CC(=O)Nc2ccc(C)cc2)C1=O,-2.22
21,CCOc1cc(CNCc2c(C(=O)O)n(CC)c3cc(OC)ccc23)cc(OCC)c1OCC,3.38
22,Cc1cc(-c2ccc(C)c(S(=O)(=O)NCCC(C)C)c2)on1,1.32
23,COc1ccc(/C=C2/NC(=O)NC2=O)c(OC)c1C,5.37
24,Cc1nc(CNS(=O)(=O)c2ccc3c(c2)CCCC3)cs1,-2.45
25,Cc1cccc(Cn2c(Br)nc3c2c(=O)[nH]c(=O)n3C)c1,2.75
